The whole screen tested about 150,000 compounds, of which about 540 (0.36%) showed an effect of 50% or more. The list shows a part of the results.

The subject of this test is Plasmodium falciparum. As to the kind of experiment: Primary screen in NF54 nanoGlo assay, in single point, at 2uM, 72h; a lower Z score goes with more inhibition. Type of test: functional, Erythrocyte. Conditions: timepoint 72 hour.
What is called % Inhibition is the drop in the measured response relative to a control, in per cent. As to `O=C(c1ccccc1F)N(Cc1ccc2c(c1)OCO2)Cc1c(-c2ccccc2)noc1N1CCCC1`, the “% Inhibition” value is given as 1% and the Z score is recorded as -0.08.
For `CC[C@H](NC1CC=CC1)c1ccccc1O` the same measures were -11% and 1.6.
In the same order, the values of `Cc1ccc(N2CCC(C(=O)N3CCN(c4ccc(F)c(Cl)c4)CC3)CC2)nn1` are -7% and 1.26.
With `C#CCCC1(CCC(=O)N2CC[C@@]3(C2)C(=O)Nc2ccccc23)N=N1`, the “% Inhibition” value is given as -2% and the Z score is reported as 0.21.
For `O=C(N[C@H]1CCCc2ccccc21)c1cc(OCc2ccccc2)ncn1` the same measures were -1% and 0.19.
Take `Cc1noc(C)c1C(C)(C)NC(=O)CCn1ccnn1`: the “% Inhibition” value is reported as 29% and the Z score is listed as -3.32.
On to `Cc1[nH]nc(O)c1C(c1ccccc1)c1c(O)n[nH]c1C`, for which the “% Inhibition” value is given as -5% and the Z score was determined as 0.59.
In the same order, the values of `CONC(=O)C(=O)Nc1c(F)cccc1Br` are -39% and 4.57.
As to `C[C@H](NC(=O)Nc1ccn(CCCC#N)n1)C1CCOCC1`, the “% Inhibition” value is -8% and the Z score was found to be 0.65.
For `O=C(N[C@H]1CCOC[C@@H]1OCc1ccccc1)c1n[nH]c2c1CCCC2` the same measures were -14% and 2.3.
For `CCCN1C(=O)c2cc(S(=O)(=O)Nc3ccc(F)c(C)c3)ccc2Oc2cccnc21` the same measures were -4% and 0.64.
For `Cc1ccc(NC(=O)Cn2cnc3c(-c4ccc(F)cc4)nsc3c2=O)cc1C` the same measures were -4% and 0.62.
Turning to `CCOc1ccccc1[C@H]1Oc2ccccc2-n2c(-c3ccccc3C)c3c(=O)n(C)c(=O)n(C)c3c21`, the “% Inhibition” value is recorded as -4% and the Z score came to 0.56.
In the same order, the values of `CC(C)(C)C1CNC(=O)C1C(=O)Nc1cccc(O)c1` (centres undefined) are 6% and -1.11.
As for `CC[C@@]12CCCN1C(=O)N(Cc1cnc(CC(C)C)s1)C2=O`, the “% Inhibition” value is listed as -3% and the Z score was 0.38.
As for `O=C1CN(C(=O)c2ccc(-c3nc4ccccc4s3)s2)CCN1`, the “% Inhibition” value was -25% and the Z score turned out to be 2.49.
For `Cc1noc(C)c1[C@@H](C)C(=O)Nc1nc(C(C)C)cs1`, the “% Inhibition” value is listed as -5% and the Z score came out at 0.38.
In the same order, the values of `Cc1cccc(C)c1NC(=O)[C@H](C)NC1=NCCCCC1` are -22% and 2.57.
For `Clc1cccc(-c2cn(CCN3CCCC3)nn2)c1Cl` the same measures were -10% and 1.95.
For `COc1ccc(N2CCN(C(=O)CN3C(=O)[C@H]4CCCC4=Nc4ccccc43)CC2)cc1` the same measures were 5% and -0.61.
For `Cn1ccnc1CN(CCO)C(=O)Nc1ccc(C2CCCCC2)cc1`, the “% Inhibition” value is given as -3% and the Z score stood at 0.43.
For `Cc1csc(CCCCNC(=O)C2CCN(c3oc(C)nc3C#N)CC2)n1`, the “% Inhibition” value is on record as -14% and the Z score was 1.92.
For the compound `CC1=NN(c2ccccc2)C(=O)C12Cc1ccccc1N1CCC(Cc3ccccc3)CC12` (centres undefined), the “% Inhibition” value is listed as 8% and the Z score is on record as -0.98.
In the same order, the values of `CC(C)C(=O)N1CCC(NCc2cc3cc(F)ccc3o2)C(C)C1` (centres undefined) are -18% and 1.54.
In the same order, the values of `CN(C)CCN(C(=O)CCCN1C(=O)c2ccccc2C1=O)c1cccc(Cl)c1Cl` are -9% and 1.14.
On to `CCc1nc(CN(C)C[C@H](C)C(=O)OC)cs1`, for which the “% Inhibition” value is -9% and the Z score worked out at 1.42.
For the compound `COCC[C@H]1CN(Cc2nonc2C)CCO1`, the “% Inhibition” value was -10% and the Z score turned out to be 1.65.
For `Cc1nn(CCO)c(C)c1CN1CCC(c2cc[nH]n2)CC1` the same measures were -6% and 0.71.
`CCCC1(CNC(=O)[C@H](C)OC)CCC1`: the “% Inhibition” value was -4% and the Z score was 0.46.
Consider `C[C@@H](Cn1cccn1)OC(=O)c1ccncc1Cl`, for which the “% Inhibition” value is on record as -5% and the Z score is recorded as 0.73.
In the same order, the values of `CNc1nc(C)cc(C(=O)N(C)C(C)(C)COC)n1` are -10% and 1.44.
In the same order, the values of `O[C@@H](CNc1cc(C(F)(F)F)ccn1)CN1CCOCC1` are -11% and 1.42.
In the same order, the values of `O=C(C1=CCCC1)N1CCC(CF)CC1` are -2% and 0.31.
In the case of `COc1ccccc1N1CCN(C(=O)Cn2c3ccccc3c3nnc(-n4nc(C)cc4C)nc32)CC1`, the “% Inhibition” value was 6% and the Z score was -0.88.
For `Cc1nc(CC(=O)Nc2cccc(Cl)c2)sc1C(=O)NCc1ccccc1` the same measures were -4% and 0.5.
In the same order, the values of `CNC(=O)[C@H](CC(C)C)NC(=O)c1cc(Cl)c(Cl)n1C` are 1% and -0.08.
For the compound `CCc1nc(-c2ccccc2)nc(N2CCN(C(=O)[C@H]3CCOC3)CC2)c1Cc1ccc(Cl)cc1`, the “% Inhibition” value is reported as -3% and the Z score was found to be 0.43.
Regarding `COc1cccc(/N=C(\NCc2ccccn2)NC(=O)c2ccc(C(F)(F)F)cc2)c1`, the “% Inhibition” value is -5% and the Z score came out at 0.88.
Turning to `Cc1nn(C)c(C)c1[C@H]1OCC[C@@H]1CNC(=O)c1ccc2c(c1)CCC=C2`, the “% Inhibition” value was -12% and the Z score worked out at 1.28.
In the same order, the values of `Cc1cc(C(=O)N2CCN(c3cccc(C)c3C)CC2)c2c(C)nn(-c3cccc(Cl)c3C)c2n1` are -12% and 1.21.
As to `Cn1c(=O)c2sccc2n(CC(=O)NC[C@H]2CCCO2)c1=O`, the “% Inhibition” value is listed as -11% and the Z score turned out to be 2.12.
As for `O=C(Cc1ccsc1)Nc1ccc2c(c1)CCC(=O)N2`, the “% Inhibition” value is -10% and the Z score is given as 1.67.

(Values after ChEMBL document CHEMBL4888484, “Replenishing the malaria drug discovery pipeline: Screening and hit evaluation of the MMV Hit Generation Library 1 (HGL1) against asexual blood stage Plasmodium falciparum ,using a nano luciferase reporter read-out” (2022).)
